Measurements as given in PubChem BioAssay AID2675 (National Center for Advancing Translational Sciences (NCATS), 2010).
Among all 280,000 compounds or so, about 100 (0.036%) were called active. The shares of active, inactive and inconclusive entries below differ from those in the screen. The call rests on the fitted dose curve; in most records, active means well fitted inhibition curve with a large enough effect in the signal ratio, with a control signal flat (not every such curve was filed as active); inconclusive means small, poorly fitted or top-dose-only effect, or effect the other way, or a change in a side signal; inactive means no such curve, though single readings can be large or run the other way; the % refers to the signal ratio. Potencies of inconclusive entries are doubtful fits and often do not repeat. A note “side channel” means that the fit belongs to a control or component signal, not to the main read-out.

What follows are compounds tested against Muscleblind-like protein 1 (Homo sapiens) (UniProt Q9NR56) (assay: qHTS Assay for Inhibitors of MBNL1-poly(CUG) RNA binding). Conditions: TR-FRET MBNL1-His/biotin-(CUG)12 binding, 665/545 ratio; activity change, negative = inhibition: at 57.5 µM (top of the series).
Sequence of UniProt Q9NR56 (Q9NR56 whole entry, looked up): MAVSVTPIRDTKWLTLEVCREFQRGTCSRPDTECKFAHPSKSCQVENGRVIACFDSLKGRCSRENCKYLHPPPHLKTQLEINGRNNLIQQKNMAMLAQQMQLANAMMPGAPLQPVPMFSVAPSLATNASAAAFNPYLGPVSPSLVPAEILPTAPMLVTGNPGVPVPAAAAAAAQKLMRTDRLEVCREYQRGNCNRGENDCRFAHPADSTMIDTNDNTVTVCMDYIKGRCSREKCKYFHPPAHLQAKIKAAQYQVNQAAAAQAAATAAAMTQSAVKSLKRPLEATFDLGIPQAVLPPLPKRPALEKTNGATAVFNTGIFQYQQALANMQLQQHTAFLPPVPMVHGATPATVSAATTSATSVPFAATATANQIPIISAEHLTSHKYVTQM
Procedure, shortened: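 TR-FRET between His-tagged MBNL1 and biotin-(CUG)12 RNA, detected with Tb anti-His antibody (0.055 ng/ul) and streptavidin-XL665 (5 nM), 60 min at room temperature. Compounds titrated 92 nM to 58 uM; 665/545 nm ratio normalized to buffer and complex controls.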
On the % scale 0 is the no-effect control and ±100 the full control effect; potency means the concentration at half of the fitted maximal effect; tags describe the fitted curve by direction and shape or compound fluorescence and quenching.

**Q.** Which Potency does the source give for `O=C(CNC(=O)C(c1ccccc1)c1ccccc1)N/N=C\c1ccc(C(=O)O)cc1` here?
**A.** Its Potency is inconclusive: 12.6 µM [quencher, side channel, partial curve].

**Q.** With `COc1cc(NC(=S)NCCCN2CCOCC2)c(OC)cc1Cl` as the compound, how does the “activity change, negative = inhibition” value read?
**A.** Its value is inactive: 1.43%.

**Q.** With `Cn1c(=O)n(C)c2cc([N+](=O)[O-])c(N3CCN(C(=O)c4ccccc4Br)CC3)cc21` as the compound, how does the Potency read?
**A.** The Potency was inconclusive: 7.94 µM [quencher, side channel, partial curve].

**Q.** Which Potency does the source give for `C=CCNC(=O)c1cc2c(=O)n3cc(C)ccc3nc2nc1NCC1CCCO1` (centres undefined) here?
**A.** Its Potency is inconclusive: 4.47 µM [quencher, side channel, full curve].

**Q.** Which Potency does the source give for `O=C(CNC(=O)c1ccc2c(c1)OCCO2)N=Nc1c(O)[nH]c2ccccc12` here?
**A.** Its Potency is inconclusive: 8.91 µM [quencher, side channel, partial curve].

**Q.** For `Cn1nnnc1SCc1ccccc1[N+](=O)[O-]`, which Potency is on record?
**A.** The Potency was inconclusive: 20 µM [quencher, side channel, partial curve].

**Q.** How did the “activity change, negative = inhibition” value turn out when `O=C1NN=C(c2ccc(Cl)cc2)CC1c1cccc(Br)c1` (centres undefined) was run?
**A.** Its value is inactive: 13.9%.

**Q.** With `CC(=O)c1cccc(NC(=O)/C(=C/c2ccco2)NC(=O)c2ccco2)c1` as the compound, how does the Potency read?
**A.** Its Potency is inconclusive: 35.5 µM [quencher, side channel, single point].

**Q.** For `Cc1ccc2cccc(OCc3cccc([N+](=O)[O-])c3)c2n1`, which Potency is on record?
**A.** The Potency was inconclusive: 17.8 µM [quencher, side channel, partial curve].

**Q.** With `Oc1ccc(/C=N\Nc2cc(N3CCOCC3)nc(N3CCOCC3)n2)c(O)c1` as the compound, how does the Potency read?
**A.** The Potency was inconclusive: 28.2 µM [quencher, side channel, partial curve].

**Q.** `COc1ccc2[nH]c3c(=O)n(Cc4ccc(C(=O)N5CCC(C(N)=O)CC5)cc4)c(=S)[nH]c3c2c1` was tested. Which Potency did it give?
**A.** Its Potency is inconclusive: 14.1 µM [quencher, side channel, partial curve].

**Q.** Which Potency does the source give for `CC(C)(C)C(=O)COC(=O)c1cc(-c2cccnc2)nc2ccccc12` here?
**A.** The Potency was inconclusive: 25.1 µM [quencher, side channel, partial curve].

**Q.** `Cc1ccc(S(=O)(=O)N/N=C\C=C\c2ccccc2)cc1` was tested. Which Potency did it give?
**A.** The Potency was inconclusive: 0.126 µM [quencher, side channel, full curve, poor fit].

**Q.** For `Cc1ccc(Cl)c(OCCCCN(C)Cc2ccccc2)c1`, which “activity change, negative = inhibition” value is on record?
**A.** Its value is inactive: -3.62%.

**Q.** For `CCCCc1ccc(NC(=S)N2CCCC2)cc1`, which “activity change, negative = inhibition” value is on record?
**A.** Its value is inactive: -2.42%.

**Q.** For `COC(=O)CCC(=O)c1oc2ccccc2c1N`, which Potency is on record?
**A.** Its Potency is inconclusive: 28.2 µM [quencher, side channel, partial curve].

**Q.** How did the Potency turn out when `Cc1oc(C)c2c(=O)ccc3c(c12)OC(N)=C(C#N)C3c1ccc(F)cc1` (centres undefined) was run?
**A.** Its Potency is inconclusive: 25.1 µM [quencher, single point].

**Q.** `COc1ccc(Cc2nnc(NS(=O)(=O)c3ccc([N+](=O)[O-])cc3)s2)cc1` was tested. Which Potency did it give?
**A.** The Potency was inconclusive: 31.6 µM [quencher, side channel, single point].

**Q.** For `Cc1cc(C)n(-c2nc(N(C)C)nc(N(C)C)n2)n1`, which Potency is on record?
**A.** The Potency was inconclusive: 0.398 µM [quencher, side channel, full curve, poor fit].

**Q.** How did the Potency turn out when `COc1ccc(/C=C/C2=CC(C)(C)NC(=S)N2)cc1OC` was run?
**A.** Its Potency is inconclusive: 31.6 µM [quencher, side channel, single point].

**Q.** `Cc1ccccc1NC(=O)CCC(=O)OCC(=O)c1cccc([N+](=O)[O-])c1` was tested. Which Potency did it give?
**A.** Its Potency is inconclusive: 17.8 µM [quencher, side channel, partial curve].

**Q.** With `O=C(NCC1CCCO1)C1CCCN(S(=O)(=O)c2cccc3nsnc23)C1` (centres undefined) as the compound, how does the Potency read?
**A.** The Potency was inconclusive: 17.8 µM [quencher, side channel, partial curve].

**Q.** Which Potency does the source give for `Cc1ccc2oc(=O)c3cc(C(=O)NCCN4CCc5ccccc5C4)sc3c2c1` here?
**A.** The Potency was inconclusive: 14.1 µM [quencher, side channel, single point].

**Q.** For `Nc1sc(-c2ccccc2)cc1-c1n[nH]c(=S)n1C1CCCCC1`, which “activity change, negative = inhibition” value is on record?
**A.** The value was inactive: 6.69%.

**Q.** Which Potency does the source give for `COc1ccccc1NCC(=O)N/N=C/c1cccnc1` here?
**A.** The Potency was inconclusive: 39.8 µM [quencher, side channel, single point].

**Q.** `COc1cccc(N2C(=O)c3ccncc3C2=O)c1` was tested. Which Potency did it give?
**A.** Its Potency is inconclusive: 15.8 µM [quencher, partial curve].

**Q.** How did the Potency turn out when `CN(C)CCCNc1ncnc2sc(-c3ccccc3)cc12` was run?
**A.** The Potency was inconclusive: 17.8 µM [quencher, side channel, partial curve].

**Q.** For `O=C(CN1C(=O)c2cccc3cccc1c23)NCc1ccc2c(c1)OCO2`, which Potency is on record?
**A.** Its Potency is inconclusive: 25.1 µM [quencher, side channel, single point].

**Q.** `O=C(CN1CCCCCC1)Nc1ccccc1[N+](=O)[O-]` was tested. Which Potency did it give?
**A.** Its Potency is inconclusive: 15.8 µM [quencher, side channel, single point].

**Q.** How did the “activity change, negative = inhibition” value turn out when `COc1ccc(CN(C)C(=O)Cc2ccsc2)c(OC)c1OC` was run?
**A.** Its value is inactive: 0.57%.

**Q.** `Cc1ccsc1/C=C1\SC(N)=NC1=O` was tested. Which Potency did it give?
**A.** Its Potency is inconclusive: 25.1 µM [quencher, side channel, partial curve].

**Q.** For `O=C(NC1CCCC1)c1ccc([N+](=O)[O-])s1`, which Potency is on record?
**A.** Its Potency is inconclusive: 10 µM [quencher, side channel, partial curve].

**Q.** For `CC(=O)c1c(C)[nH]c(C(=O)NC2CCCCC2)c1C`, which “activity change, negative = inhibition” value is on record?
**A.** Its value is inactive: -4.14%.

**Q.** For `Cc1ccccc1OCC(=O)NN1CCN(C)CC1`, which Potency is on record?
**A.** Its Potency is inconclusive: 0.112 µM [fluorescent, side channel, full curve, poor fit].

**Q.** Which “activity change, negative = inhibition” value does the source give for `CCOC(=O)C1=C(C)N(C)C(=S)NC1c1ccc(Cl)cc1` (centres undefined) here?
**A.** Its value is inactive: -6.19%.

**Q.** How did the “activity change, negative = inhibition” value turn out when `COc1ccc(C(=O)NCC(=O)OCC(=O)N2CCCc3ccccc32)cc1` was run?
**A.** Its value is inactive: -6.71%.

**Q.** How did the Potency turn out when `Cc1ccc(-c2cc(Cc3ccccn3)c(=O)[nH]n2)cc1` was run?
**A.** Its Potency is inconclusive: 15.8 µM [quencher, side channel, partial curve].

**Q.** `Cc1ccc(-n2c(C)cc(/C=C3\NC(=O)NC3=O)c2C)c(C)c1` was tested. Which Potency did it give?
**A.** The Potency was inconclusive: 12.6 µM [quencher, side channel, partial curve].

**Q.** For `CCOC(=O)c1ccc(NC(=O)c2ccc3c(c2)C(=O)N(Cc2cccnc2)C3=O)cc1`, which Potency is on record?
**A.** Its Potency is inconclusive: 14.1 µM [quencher, side channel, partial curve].

**Q.** `CC(C)CCn1c(NCCc2ccccc2)nc2c1c(=O)n(C)c(=O)n2C` was tested. Which “activity change, negative = inhibition” value did it give?
**A.** Its value is inactive: -4.36%.

**Q.** Which Potency does the source give for `CSc1ccc(Cl)c(C(=O)OCC(=O)NCc2ccco2)c1` here?
**A.** Its Potency is inconclusive: 6.31 µM [quencher, side channel, single point].

**Q.** With `COc1ccc(OCC(=O)N/N=C/c2ccncc2)cc1` as the compound, how does the “activity change, negative = inhibition” value read?
**A.** The value was inactive: 19.2%.

**Q.** With `COCCCn1c(=N)c(C(=O)NCC2CCCO2)cc2c(=O)n3ccccc3nc21` (centres undefined) as the compound, how does the Potency read?
**A.** Its Potency is inconclusive: 5.01 µM [quencher, side channel, partial curve].

**Q.** With `CCCCOc1ccccc1NC(=O)c1scc2c1OCCO2` as the compound, how does the “activity change, negative = inhibition” value read?
**A.** Its value is inactive: -1.77%.

**Q.** Which “activity change, negative = inhibition” value does the source give for `OCCCc1cn(-c2ccccc2)c2ccccc12` here?
**A.** The value was inactive: 8.19%.

**Q.** Which Potency does the source give for `COc1ccc(/C=N/Nc2cc(C)nc3ccc(Br)cc23)cc1` here?
**A.** Its Potency is inconclusive: 25.1 µM [quencher, side channel, single point].

**Q.** Which “activity change, negative = inhibition” value does the source give for `CCCCCCc1cc2cc(C(=O)NC)c(=N)oc2cc1O` here?
**A.** Its value is inactive: -2.2%.

**Q.** How did the Potency turn out when `CCOC(=O)N=S(=O)(Oc1ccc([N+](=O)[O-])cc1)c1ccccc1` (centres undefined) was run?
**A.** Its Potency is inconclusive: 1.78 µM [quencher, side channel, partial curve, poor fit].

**Q.** How did the “activity change, negative = inhibition” value turn out when `COc1ccc(C(=O)CC(=O)C(=O)Nc2cc(Cl)c(OC)cc2OC)cc1` was run?
**A.** Its value is inactive: 9.56%.

**Q.** `COc1ccc(N=Cc2c(O)c3ccccc3n2C(C)=O)cc1` was tested. Which Potency did it give?
**A.** The Potency was inconclusive: 15.8 µM [quencher, side channel, partial curve].

**Q.** Which Potency does the source give for `O=C(NC(N1CCOCC1)C(Cl)(Cl)Cl)c1ccco1` (centres undefined) here?
**A.** The Potency was inconclusive: 6.31 µM [inhibitor, single point].

**Q.** With `COc1ccc(/C=N/n2cnn(Cc3ccccc3Cl)c2=S)cc1OC` as the compound, how does the “activity change, negative = inhibition” value read?
**A.** Its value is inactive: 24.2%.

**Q.** For `O=C(/C=C/c1ccccc1)C1=C(O)C(=O)N(CCO)C1c1ccccc1[N+](=O)[O-]` (centres undefined), which Potency is on record?
**A.** The Potency was inconclusive: 25.1 µM [quencher, side channel, partial curve].

**Q.** How did the “activity change, negative = inhibition” value turn out when `COc1ccccc1S(=O)Cc1ccc(C(=O)NCc2ccccc2Cl)o1` (centres undefined) was run?
**A.** Its value is inactive: -0.867%.

**Q.** `Oc1cccc(NC(=S)N=Nc2c(O)[nH]c3ccc(Br)cc23)c1` was tested. Which Potency did it give?
**A.** Its Potency is inconclusive: 14.1 µM [quencher, side channel, partial curve].

**Q.** For `COc1cc(/C=C2/SC(=S)N(CC(=O)O)C2=O)ccc1OC(=O)c1ccco1`, which Potency is on record?
**A.** The Potency was inconclusive: 31.6 µM [quencher, side channel, single point].

**Q.** Which “activity change, negative = inhibition” value does the source give for `Cc1ccccc1CSCCNS(C)(=O)=O` here?
**A.** Its value is inactive: 1.61%.

**Q.** Which Potency does the source give for `COc1ccccc1NC(=O)CSc1sc2c(O)cc(=O)[nH]c2c1C#N` here?
**A.** Its Potency is inconclusive: 20 µM [quencher, side channel, partial curve].

**Q.** Which Potency does the source give for `CSc1ccccc1C(=O)NC1CCCCCC1` here?
**A.** The Potency was inconclusive: 39.8 µM [fluorescent, side channel, single point].

**Q.** `Cc1cc(C)cc(C(=O)N(NC(=O)Nc2ccc(Cl)cc2)C(C)(C)C)c1` was tested. Which Potency did it give?
**A.** The Potency was inconclusive: 100 µM [inhibitor, single point].

**Q.** For `O=C(N/N=C/c1ccco1)C(O)C(O)C(=O)N/N=C/c1ccco1` (centres undefined), which Potency is on record?
**A.** The Potency was inconclusive: 14.1 µM [quencher, side channel, partial curve].

**Q.** For `CCc1ccc(/C=N\NC(=O)c2ccc(Br)o2)s1`, which Potency is on record?
**A.** The Potency was inconclusive: 28.2 µM [quencher, side channel, single point].

**Q.** `CN1CCN(C(=S)c2ccc(-c3cccc([N+](=O)[O-])c3)o2)CC1` was tested. Which Potency did it give?
**A.** The Potency was inconclusive: 14.1 µM [quencher, side channel, partial curve].

**Q.** Which Potency does the source give for `Cc1ccc(C(=O)C2=C(O)C(=O)N(Cc3cccnc3)C2c2cccc([N+](=O)[O-])c2)o1` (centres undefined) here?
**A.** The Potency was inconclusive: 39.8 µM [quencher, side channel, single point].
